Hit rate of the full screen: of about 46,000 compounds, about 60 (0.1%) were called active. About 3% were inconclusive and are not listed. Calls follow the shape of the dose curve; as a rule, active = well fitted inhibition curve with a large enough effect; inconclusive = small, poorly fitted or top-dose-only effect; inactive = no such curve, though single readings can be large or run the other way. This is one part of the list.

This experiment is described as follows: Primary qHTS assay for Inhibitors of ovarian cancer metastasis using an organotypic tumor microenvironment (TME) model. Also: nearly all actives have a fitted effect of over 65% in size.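 As to activity change, negative = inhibition: plate controls were DMSO wells for no effect and tomatine positive control wells for full effect.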 As to conditions: SKOV3ip1-GFP adhesion/invasion on 3D omental model, fluorescence; series mostly up to 45.8 µM; activity change, negative = inhibition: at the top concentration. The method, boiled down: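 qHTS, 4-pt dose (0.36-46 umol/L); SKOV3ip1-GFP, 1,200 cells/well, no FBS; primary omental fibroblast/mesothelial co-culture 48 h pre-grown; 2 h RT + 16 h 37 C; PBS wash, 4% PFA; GFP count 488/509 nm.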
In general terms: In qHTS, concentration-response curves come from the screen itself.
As for `CCOc1ccccc1NC(=O)c1sc2nc(-c3ccc(OC)cc3)ccc2c1N`, the compound was called inactive.
Same read-out and setting: to `O=C(NCCSCc1ccccc1Cl)C1CCN(S(=O)(=O)Cc2ccccc2)CC1` belongs “inactive”; to `COc1ccc(OCC(=O)Nc2ccc(O)c(-c3nc4ccccc4s3)c2)cc1`, “inactive”.
As to `O=C(Cc1ccc(F)cc1)N1CCC(c2nc3c(nnn3Cc3ccc(F)cc3)c(=O)[nH]2)CC1`, the “activity change, negative = inhibition” value was inactive: -16.1%.
For the compound `Cc1ccc(CNC(=O)c2nc(-c3ccc(Cl)cc3)n3c2CCCCC3)cc1`, the “activity change, negative = inhibition” value was inactive: 5.03%.
Still for that read-out and setting: to `N#Cc1ccccc1Cn1c(=O)n(CCCCC(=O)NCc2ccc3c(c2)OCO3)c(=O)c2ccccc21` belongs inactive: -3.18%.
On the same count and under the same terms, with `Cc1ccccc1C(=O)Nc1nnc(S(=O)(=O)N(C)Cc2ccc(Cl)cc2)s1` the figure was inactive: 1.93%; with `COc1ccc(CC(=O)N2CC(=O)Nc3ccc(Br)cc3C2c2ccc(F)cc2)cc1` (configuration not stated), inactive: 1.98%.
Regarding `CCCn1c(=O)c2sccc2n2c(CCCC(=O)Nc3ccccc3OCC)nnc12`, the call was inactive.
For `COc1ccc(-c2cn3c(n2)sc2cc(C(=O)NC4CCCCCC4)ccc23)cc1`, the “activity change, negative = inhibition” value is inactive: 1.77%.
Same read-out and setting: to `Cc1c(Cl)cccc1NC(=O)C(CCS(C)(=O)=O)N1Cc2ccccc2C1=O` (configuration not stated) belongs inactive: -0.167%; to `Cc1cccc(NC(=O)C(=O)NCCc2sc(-c3ccccc3)nc2C)c1C`, inactive: -4.08%; to `COc1ccc(-n2nnc(-c3nsc(NC(=O)c4cccs4)n3)c2C)cc1OC`, inactive: -7.35%.
The same measure, in the same setting: with `Cc1ccc(Cl)cc1NC(=O)N1CCC2(CC1)Oc1ccccc1C(=O)N2Cc1ccccc1F` the figure was inactive: 6.88%.
On to `CCS(=O)(=O)N1CC(=O)N(c2cc(C)ccc2C)C(C)(C(=O)NC2CCCCC2)C1` (configuration not stated), for which the outcome was inactive.
With `CC(CNC(=O)c1cc(-c2ccccc2)n[nH]1)c1ccccc1` (configuration not stated), the result was inactive.
For the compound `CC(=O)c1c(C)oc2ccc(N(C(=O)Oc3ccccc3)S(=O)(=O)c3ccccc3)cc12`, the “activity change, negative = inhibition” value was inactive: 6%.
Still for that read-out and setting: to `Cc1ccc(S(=O)(=O)c2c(Nc3cc(C)ccc3C)sc(C(=O)c3ccc4c(c3)OCO4)c2N)cc1` belongs inactive: -0.881%.
The same measure, in the same setting: to `CCc1ccc(NC(=O)C(NS(=O)(=O)c2cccc3nsnc23)c2ccccc2)cc1` (configuration not stated) belongs inactive: 7.6%.
For the compound `COc1ccc(CN2C(=O)N(c3ccc(F)cc3)C(=O)C2CC(=O)Nc2cc(OC)cc(OC)c2)cc1` (configuration not stated), the outcome was inactive.
Regarding `Cc1nn(C(=O)COc2ccccc2Br)c(C)c1Sc1ccccc1`, the “activity change, negative = inhibition” value is inactive: 3.87%.
For `COc1ccc(CCN2C(=O)N(c3ccc(C)cc3)C(=O)C2CC(=O)Nc2ccc(F)cc2)cc1` (configuration not stated), the “activity change, negative = inhibition” value was inactive: -17.5%.
Still for that read-out and setting: with `COc1ccc(C)cc1NC(=O)c1cc(S(=O)(=O)N2CCC(C)CC2)cn1C` the figure was inactive: -17.9%.
On the same count and under the same terms, to `Cc1cccc(N2CCN(C(=O)c3c(C)oc4ncnc(N5CCOCC5)c34)CC2)c1C` belongs inactive: -4.99%; to `Nc1cc(=O)nc(SCC(=O)Nc2ccc(F)cc2)n1-c1cccc(Cl)c1`, inactive: -17.5%.
On the same count and under the same terms, to `Cc1cccc(NC(=O)c2sc3nc(-c4ccccc4)cn3c2C)c1C` belongs inactive: 3.63%.
As for `CCc1ccc(NC(=O)C2CCC(CNS(=O)(=O)c3ccc4c(c3)C(C)(C)C(=O)N4C)CC2)cc1` (configuration not stated), the result was inactive.
In the case of `COc1ccc2c(CNCc3ccccc3OC)c(C(=O)O)n(Cc3ccc(F)cc3Cl)c2c1`, the “activity change, negative = inhibition” value was inactive: 6.19%.
Same read-out and setting: with `Cn1c(=O)c2[nH]cnc2n(C)c1=O` the figure was inactive: 8.12%.
As to `O=C(CSc1n[nH]c(-c2ccccc2)n1)N1CCN(c2ccccc2F)CC1`, the call was inactive.
Still for that read-out and setting: to `COc1cccc(NC(=O)c2sc3nc(C)c(C(=O)Nc4ccc(Cl)cc4)c(-c4ccc(Br)cc4)c3c2N)c1` belongs “inactive”.
Turning to `CS(=O)(=O)c1ccc(C2=C(c3ccccc3)C(=O)OC2)cc1`, the “activity change, negative = inhibition” value is inactive: 12.6%.
On the same count and under the same terms, with `O=C(CSc1nc(-c2cccs2)nc2cc(=O)[nH]n12)Nc1cccc(C(F)(F)F)c1` the figure was inactive: 6.94%.
As for `OCc1cnc(SCc2ccc(F)cc2)n1Cc1ccc(F)cc1`, the compound was called inactive.
Regarding `CCOc1ccc(C(=O)N(Cc2cc(OC)c(OC)c(OC)c2)c2ccccn2)cc1`, the “activity change, negative = inhibition” value is inactive: -7.91%.
Same read-out and setting: with `COc1ccc(N(CC(=O)Nc2cccc(C(C)=O)c2)S(=O)(=O)c2ccccc2)c(OC)c1` the figure was inactive: -6.09%.
As for `COc1ccc(-c2c3c(=O)n(C)c(=O)n(C)c3c3n2-c2ccccc2NC3c2ccc(O)cc2O)cc1` (configuration not stated), the compound was classed as inactive.
`COc1ccc(CCNC(c2ccc(F)cc2)c2nnc(-c3ccccc3Cl)o2)cc1OC` (configuration not stated): the “activity change, negative = inhibition” value was inactive: -0.338%.
The same measure, in the same setting: to `Cc1nn(C)c2c1c(C(F)(F)F)cc(=O)n2C(C)C(=O)NCCc1ccccc1` (configuration not stated) belongs inactive: -20.4%.
Same read-out and setting: to `O=C(Nc1nc2n(n1)C(c1ccc(Cl)cc1)C=C(c1ccccc1)N2)c1ccco1` (configuration not stated) belongs inactive: -16.8%; to `CCOC(=O)C1=C(C)NC(=O)NC1c1cn(-c2ccccc2)nc1-c1ccc(OC(C)C)cc1` (configuration not stated), inactive: -12.8%.
As to `CCCOc1ccc(-c2nonc2NC(=O)c2oc3ccc(Cl)cc3c2C)cc1OCCC`, the “activity change, negative = inhibition” value is inactive: -18.5%.
As to `CCOc1ccc(S(=O)(=O)c2cn(Cc3ccccc3C)c3ccc(OC)cc3c2=O)cc1`, the “activity change, negative = inhibition” value is inactive: -0.255%.
With `CCc1nn(CC(=O)NCCCN2CCN(CC)CC2)c(=O)c2cc3occc3n12`, the result was inactive.
Regarding `O=C(CN1c2ccccc2S(=O)(=O)c2ccccc21)Nc1ccccc1Cl`, the “activity change, negative = inhibition” value is inactive: 1.64%.
Still for that read-out and setting: to `O=C(Cn1cnc2onc(-c3ccc(F)cc3)c2c1=O)Nc1ccc(F)c(Cl)c1` belongs inactive: -26.8%; to `O=C(c1ccc(F)cc1)N1CCC(c2nc(-c3ccc(S(=O)(=O)N4CCCC4)cc3)no2)CC1`, inactive: -3.49%.

These data come from PubChem BioAssay AID1963576 (National Center for Advancing Translational Sciences (NCATS), 2024).
